This is one part of the list.
Tested on: PfSIP2 AP2 domain 1 (GST-tagged)
Experiment: gcPBM binding intensity (ln(normalized median fluorescence intensity)); higher = stronger DNA binding
Summary of the method: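 GST-fused DNA-binding domains of P. falciparum, expressed in E. coli, were applied at about 25 μg on average for 1 h to an Agilent 4 × 180k array of primer-extended double-stranded 36-bp intergenic genomic probes and negative controls. Binding intensity is the highest Masliner-normalised natural-log median intensity across replicate spots of either probe orientation, measured with Alexa488 anti-GST antibody and a 488 nm scan.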

Sequence | gcPBM binding intensity (ln)
AATTTTTTTTTTTTTTTTTTTTATATATGTGTGTGT [XGTACX_negctrl_site129] | 7.29
CTTATAAATAAAAGAAGTACATGTTAGTTCAAGTTA [XGTACX_site4183] | 7.24
TTGAAGAAAAAAAAATGTACATAAAAAATATATATG [XGTACX_site428] | 7.21
TTTCATCTCGTCATTTCTTATATAACTATTTTATAC [CACACA_negctrl_site813] | 7.27
ATTATTGTTTATTGATTTTTGTTAAAATAGGAAATT [GTGCAC_negctrl_site181] | 6.91
ATTATATTTATTAATATGTATATTTAATTATATTTA [XGTACX_negctrl_site376] | 6.68
TTCTTTATTATATGCACACGTACATAAAATATATAT [CACACA_site5157] | 7.74
CAAATTTTTTATTAAACACACAAACATATATATATA [CACACA_site5122] | 9.21
AAGTGTAAAAGTTACACACACAAACTTGTCATTTTT [CACACA_site4614] | 6.78
TATAAAAAATATATATATAATATTATATATATATAT [TGCATGCA_negctrl_site260] | 8.93
ATTTTTTTTTTTTTTTGTACGAATAATATGTATGAA [XGTACX_site5318] | 7.12
AAAGGAGGGAATTTTTCTAGGTGTGGAGTGCTACTC [XGTACX_negctrl_site63] | 7.19
TCGTCTCAATAATTATAATAAAAAAATTCCTAAGTC [CACACA_negctrl_site338] | 6.92
ATTTTCCTATTTAGTAGTACTTTTTTCTTTTTTTAA [XGTACX_site5260] | 7.04
TTATATTTCACAAATGTGCACAGATACATATATATA | 9.03
TTTTTGTTTCATAAATGTACAAAAACAAACATATTT [XGTACX_site5281] | 7.02
TTATATGTATATATAGTGCAGAACAAAAGATTATAT [GTGCAC_site9599] | 7.83
AAACAATTTAGACATACACACAAAAATAATATTATA [CACACA_site384] | 6.98
CACGAAAATTTGTAGAGTACATATATAATTAATATA [XGTACX_site3808] | 6.91
ATATATATATATATATGTACATATTGTATTATTCAC [XGTACX_site6511] | 9.47
ATTAAAAAAAAGCTCATCGAAATGTCTTATATAAAT [CACACA_negctrl_site912] | 6.73
CAATTAAACAATTAAACATGCAAAATGATATAATAA [TGCATGCA_site240] | 6.79

Sequence | gcPBM binding intensity (ln)
AAAAAAAAATAGAAATGTACAAATTGTAATAATTCC [XGTACX_site6182] | 6.67
TATAATAATATTTATTGTACGATTAGATTAATTCAT [XGTACX_site612] | 6.83
GAGCATTACACATATACACACATATATATAAACATA [CACACA_site5515] | 7.59
CATATGATATTATTTTGTACTTATTACAAATATGAA [XGTACX_site7929] | 7.13
ATATATATATATATTTGTACATAATATATATATGCA [XGTACX_site1795] | 9.4
ATGTTCTATAAATATGAACACACGACATATTATTTA [CACACA_site1799] | 6.84
TGTAGTATCAATTTTTGTACATAACACATATGTATA [XGTACX_site613] | 6.93
TATATTTAATTACATGAACACACATTATATATTTTT [CACACA_site8969] | 6.95
ATATATATATATATATGTACATATTATTCTCATTGT [XGTACX_site6259] | 9.18
TTTATTTTTCCATATGCACACACACCGTATATATAA [CACACA_site8293] | 7.57
AAAACAAACACATTTACACACATAAATAAATCAATT [CACACA_site4122] | 7.09
ATACATACATACATACGTACATATGTATATATATAT [XGTACX_site8498] | 8.83
TATTCATTCTATAAAACACACAAATATTTTTGTATC [CACACA_site666] | 6.98
GTATATGAATGTTCATGTACATAATAAAATATATAA [XGTACX_site250] | 6.95
AAATTAAAATATAATACACACATAAAAAAAAAATCA [CACACA_site5918] | 6.94
ATAAAATATAAAAACGCACACAATTATAAGGGTGTA [CACACA_site177] | 6.99
ATATATATATATAAAGTGCAAAAATGAAAGTAAGAC [GTGCAC_site9850] | 9.25
CAAAAAGATAAGGTGTGTACGTATTATAATTTTAAA [XGTACX_site531] | 7.14
ATTTAATTTTCCAAATGTACTTATATTTTTATGAAA [XGTACX_site6144] | 7.05
TGAAATGATCTTTAGTTGCACTTAAAAATATATATA | 7.64
GGTATATAAAAATATTGTACTTAAAAAAATATGTAT [XGTACX_site6253] | 7.23
TATTTCACTTTTTGTCTGCACTAAAATTTTATGGTA | 7.74

Sequence | gcPBM binding intensity (ln)
TAGATACATAAACACACACACACATACATATATACA [CACACA_site9139] | 7.03
AAAAAAAAAAAAAACACACACATATATATAATATAT [CACACA_site3172] | 7.12
TTTTGACTAATATAATATGTTAAGAATTAATAAATA [XGTACX_negctrl_site35] | 6.75
AAGTATAGTCTTACATATATATATATATATATATAT [GTGCAC_negctrl_site280] | 9.42
AGTATACTCAAACACACACACACAAAAAAAAAAAAA [CACACA_site4398] | 7.11
TAAGAAATAAATAGTACACACATAGACACCCACCGA [CACACA_site1516] | 7.3
GTAATATTAATATAATGTACAAAATGAAACATATAT [XGTACX_site6219] | 7.01
CAGTTTAATTTACATAGTACATAATATTTTAATTTT [XGTACX_site1793] | 6.92
ACAATATTATTATTTAACCATACACAATTATATGTC [XGTACX_negctrl_site378] | 6.84
ATTATTTGTAATATAACACACACAAAAAAAGACTCG [CACACA_site8487] | 7.1
TCTTTATCCTTTCTCTTTTTATTAATTATAATATTC [TGCATGCA_negctrl_site584] | 6.99
ATTATACCGTATTTTGCATGTAGTATTTTCATTTTA [TGCATGCA_site1021] | 7.14
ATTAATTATGTATTTCAACAAAGAAGTGTTATATAT [GTGCAC_negctrl_site215] | 7.18
ATATATACCTAAGACACACACATATATATATATATA [CACACA_site764] | 9.24
AAGGAAAATATTAACTGTACATATAAAATATATATA [XGTACX_site5310] | 7.31
AAATGTACAGGACGCACACACATATATATATATATA [CACACA_site3674] | 9.43
TATCATTTATATATGTGTACTTATTTATTTATTTAT [XGTACX_site7961] | 7.13
AAAGAAAATTAAAAAGAACACACAAATATATATATA [CACACA_site9196] | 8.83
AATGAATCCTTATATACACACATTATTATAGTATAG [CACACA_site7454] | 6.87
ATTTATATATATTTATGTACGTATTAATTTTTTTTT [XGTACX_site3877] | 7.1
TATCTACTTAAATAAAATAAAAATAATAAATAAAAA [TGCATGCA_negctrl_site312] | 6.79
ATAAAACAAAGACACACACACATACACAAAAAAAAA [CACACA_site7752] | 7.06

Sequence | gcPBM binding intensity (ln)
AATAATCATGATCATAGTACGTATGAATACAAAAAA [XGTACX_site265] | 6.93
ATGTATAATATTTTCACACACAAGAAAAAAGAAAAG [CACACA_site3591] | 7.1
ACATTATGTCATAAATGTACACATACATATACATAC [XGTACX_site8998] | 7.11
TTTTATTTATTCCTACTTTTTTATTTATTTATTTAA [XGTACX_negctrl_site415] | 6.88
CGTATGTATATATATATACACACTTCTGTGATACGA [CACACA_site1949] | 7.1
AAATGAATTTAACAATGTACACATATATTATAAATA [XGTACX_site1449] | 7.13
ATATATATATGTATATGTACTCATTCTTCTGTGTTT [XGTACX_site5014] | 8.49
ATATACATTCTATATACATGCATACTTCATTTTGTG [TGCATGCA_site966] | 6.99
TAAGTCAAAACTTTTTTTTCTAAATTTCCATAATTA [GTGCAC_negctrl_site29] | 6.49
TACATAATAATAAGGCGTACATAAAAATTAAAAATT [XGTACX_site8769] | 7.18
AAAACGATTTTTTGCACACACATAATAAGCAGAACA [CACACA_site3871] | 7.39
AGAAAAAAATAATGTACACACACATAGATGTTTATA [CACACA_site4271] | 6.97
TCAATAATAACAAATGAACACACATATATATGAGCA [CACACA_site8663] | 6.68
AAAAAAAAAAAAAAAAGTACACAGTAGAATTAAATG [XGTACX_site1843] | 8.29
TTTTTTTTTTAATTAACACACATAAATATATATATA [CACACA_site3275] | 8.29
GAACAATAAATAAAAAAAATAAAAATAAAAATAAAA [TGCATGCA_negctrl_site35] | 6.96
ATAAGTAAATTAGATACACACATGATATCATACATA [CACACA_site1623] | 6.89
ACTAAAGTGTATCACTGTACAATTCTTCTCTTTTTT [XGTACX_site8705] | 6.97
ATAAATTTTTTTTTTTTTTTTTTTCTTTTTCTTTGT [CACACA_negctrl_site1231] | 6.67
ACGTAATTAATTCATCAGATATAATTAATAATAATA [XGTACX_negctrl_site550] | 6.98
AATATATTTGTGTATGTGCGCAGTGTGTAATTTATT [GTGCAC_site9765] | 7.52
CATCTCATATTTTGAAGTACTAAGAAAAGATATAAA [XGTACX_site6867] | 7.07
